The values that follow come from publication PMC4336329 (PLoS ONE, 2015).

Hit rate of the full screen: of about 310,000 compounds, about 14,000 (4.5%) showed an effect of 50% or more. The effect is printed as a negative number. The list shows a part of the results.
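Also: peak tail current of the secondary pulse compared with the same well before compound.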

In this test the target is human ether-à-go-go-related gene (hERG) potassium channel (human, UniProt Q12809). The experiment in a line: primary screen, population patch clamp on CHO cells stably expressing hERG.
human ether-à-go-go-related gene (hERG) potassium channel, sequence (Q12809 whole entry, looked up): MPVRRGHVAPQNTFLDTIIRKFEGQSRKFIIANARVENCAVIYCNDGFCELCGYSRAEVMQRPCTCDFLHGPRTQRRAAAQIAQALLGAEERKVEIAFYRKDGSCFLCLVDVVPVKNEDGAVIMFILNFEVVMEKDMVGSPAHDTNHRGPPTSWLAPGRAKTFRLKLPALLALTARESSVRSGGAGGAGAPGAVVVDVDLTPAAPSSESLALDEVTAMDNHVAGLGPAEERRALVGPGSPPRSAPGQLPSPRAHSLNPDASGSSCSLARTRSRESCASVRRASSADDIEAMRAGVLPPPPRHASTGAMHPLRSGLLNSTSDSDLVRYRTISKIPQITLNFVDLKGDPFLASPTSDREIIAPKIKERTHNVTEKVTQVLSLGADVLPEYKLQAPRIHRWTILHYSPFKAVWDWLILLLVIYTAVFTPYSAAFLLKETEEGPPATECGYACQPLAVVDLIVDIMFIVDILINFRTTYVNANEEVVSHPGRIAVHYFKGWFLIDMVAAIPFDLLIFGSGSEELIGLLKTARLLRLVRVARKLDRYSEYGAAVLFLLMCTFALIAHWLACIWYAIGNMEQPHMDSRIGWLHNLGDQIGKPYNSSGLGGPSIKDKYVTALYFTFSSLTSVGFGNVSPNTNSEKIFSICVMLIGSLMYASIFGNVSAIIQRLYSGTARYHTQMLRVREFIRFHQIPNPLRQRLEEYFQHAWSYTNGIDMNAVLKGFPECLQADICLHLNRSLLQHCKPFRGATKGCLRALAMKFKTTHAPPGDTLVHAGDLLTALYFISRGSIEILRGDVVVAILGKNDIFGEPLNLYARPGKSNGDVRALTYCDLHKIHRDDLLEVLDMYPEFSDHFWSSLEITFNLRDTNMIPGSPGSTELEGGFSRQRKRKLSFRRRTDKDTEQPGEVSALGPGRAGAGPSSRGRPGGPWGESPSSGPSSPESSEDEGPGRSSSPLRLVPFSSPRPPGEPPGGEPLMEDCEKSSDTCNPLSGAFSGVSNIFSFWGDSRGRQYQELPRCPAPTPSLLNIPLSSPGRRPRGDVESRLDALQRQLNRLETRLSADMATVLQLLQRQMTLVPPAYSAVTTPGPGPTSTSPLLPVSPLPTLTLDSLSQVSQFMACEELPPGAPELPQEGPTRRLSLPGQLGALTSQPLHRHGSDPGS
On to `CCOc1ccc(S(=O)(=O)Nc2cnc3ccccc3c2)cc1`, for which the “hERG current change (%, negative = inhibition) at 10uM” value worked out at 2.82%.
As for `CCC(C(=O)NC1CCCC1)N(C(=O)Cn1nnc(-c2cccs2)n1)c1cnc2ccccc2c1` (stereo not drawn), the “hERG current change (%, negative = inhibition) at 10uM” value came out at 9.1%.
As for `CN(C)c1ccc(C(=S)N2CCN(c3ccc([N+](=O)[O-])cc3)CC2)cc1`, the figure is -18.7%; as for `CC1=C(C(=O)OCc2ccccc2)C(c2ccccc2OS(=O)(=O)c2ccc([N+](=O)[O-])cc2)NC(=O)N1CCCC(=O)O` (stereo not drawn), -49.7%; as for `CC(C)Oc1ccc(S(=O)(=O)N2CCOCC2)cc1NC(=O)C1CCCCC1`, -19.6%.
As for `COC(=O)C1=CO[C@@H](C)[C@H]2CN3CCc4c([nH]c5ccccc45)[C@@H]3C[C@H]12.Cl`, the figure is -20.2%; as for `Cc1ccc(NS(=O)(=O)c2ccc(NC(=O)c3cccs3)cc2)c(C)c1`, -14.8%.
As for `N/C(CSc1nc(-c2ccccc2)c(-c2ccccc2)o1)=N\O`, the figure is -35.3%; as for `CC(=O)c1ccc(N2CCN(C(=O)c3ccc(C(=O)c4ccccc4)cc3)CC2)cc1`, -11.7%.
Consider `O=C(COc1ccc(Br)cc1)N(CCO)CCO`, for which the “hERG current change (%, negative = inhibition) at 10uM” value was -1.44%.
Turning to `CCC(=O)NCCc1nc2cc(NC(=O)c3cccc([N+](=O)[O-])c3)ccc2n1C`, the “hERG current change (%, negative = inhibition) at 10uM” value came to 5.11%.
For `Cc1ccc(C(=O)N2CCN(c3cccc(C)c3C)CC2)cc1S(=O)(=O)N1CCOCC1`, the “hERG current change (%, negative = inhibition) at 10uM” value is listed as -29.8%.
In the case of `CCOC(=O)C1=C(C)Nc2ccccc2N/C1=N\S(=O)(=O)c1cccc(Cl)c1`, the “hERG current change (%, negative = inhibition) at 10uM” value is 0.773%.
On to `COc1ccc2c(C(=O)CN3CCN(CCO)CC3)c[nH]c2c1`, for which the “hERG current change (%, negative = inhibition) at 10uM” value was -1.03%.
For the compound `O=C(O)CNc1nc(-c2ccccc2)c2cc([N+](=O)[O-])ccc2n1`, the “hERG current change (%, negative = inhibition) at 10uM” value was determined as 5.22%.
Turning to `O=[N+]([O-])c1cc(-c2n[nH]c(-c3ccccc3)n2)cc([N+](=O)[O-])c1`, the “hERG current change (%, negative = inhibition) at 10uM” value worked out at 14.5%.
Take `O=C(Nc1ccccn1)c1cccs1`: the “hERG current change (%, negative = inhibition) at 10uM” value is recorded as -10.4%.
As for `CN(C)CCCNC(=O)/C=C/c1ccc2c(c1)OCO2`, the figure is -10.4%.
As for `CCn1c(CC(=O)Nc2ccc(C)c(Cl)c2)nnc1SCc1ccc(Cl)c(Cl)c1`, the figure is -1.33%; as for `Cc1ccccc1-c1nnc2c3ccccc3c(C)nn12`, -6.8%.
Regarding `Cc1ccc(-c2nnc(SCC(=O)N3CCCc4ccccc43)n2N)cc1`, the “hERG current change (%, negative = inhibition) at 10uM” value is reported as -13.8%.
For `COC(=O)c1ccccc1-c1ccc(/C=C2\C(=O)N(c3ccccc3)N=C2c2ccccc2)o1`, the “hERG current change (%, negative = inhibition) at 10uM” value was 5.89%.
As for `CC(=O)c1ccc(NC(=O)C2CCN(S(=O)(=O)c3cccs3)CC2)cc1`, the figure is -19.4%.
As for `C=CCn1cccc(C(=O)Nc2ccc(C)c(Cl)c2)c1=O`, the “hERG current change (%, negative = inhibition) at 10uM” value came to 10%.
Regarding `COc1ccc(C(C(=O)OC(C)CN(C)C)c2ccccc2)cc1.Cl` (stereo not drawn), the “hERG current change (%, negative = inhibition) at 10uM” value is listed as -34.1%.
In the case of `CCOC(=O)C1CC2CC(C1)CN(C(=O)C1CCCCC1)C2` (stereo not drawn), the “hERG current change (%, negative = inhibition) at 10uM” value is reported as 31.4%.
On to `CCOc1cc(CN2CCN(c3cccc(C(F)(F)F)c3)CC2)ccc1O`, for which the “hERG current change (%, negative = inhibition) at 10uM” value is -73%.
As for `Cc1[nH]c2ccccc2c1SCC(=O)N1CCCCC1`, the figure is 19.3%; as for `Cc1cccc(C)c1NC1=C(Cl)C(=O)OC1OC(=O)c1ccccc1` (stereo not drawn), 21.1%; as for `CCc1ccc(C2NC(=S)NC3=C2C(=O)N(c2ccccc2OC)C(c2ccc(CC)cc2)N3)cc1` (stereo not drawn), -8.82%.
On to `CCOc1ccc(NC(=O)COc2ccc(C(=O)NCc3cccc(OC)c3)cc2OC)cc1`, for which the “hERG current change (%, negative = inhibition) at 10uM” value was -5.85%.
In the case of `COc1ccccc1CNC(=O)c1cnccn1`, the “hERG current change (%, negative = inhibition) at 10uM” value came to 0.0654%.
As to `Cc1nc([N+](=O)[O-])cn1CCC#N`, the “hERG current change (%, negative = inhibition) at 10uM” value was -1.22%.
With `O=C(CNC(=O)c1ccc(Br)o1)NNC(=O)c1cccc(Cl)c1`, the “hERG current change (%, negative = inhibition) at 10uM” value is -7.08%.
Turning to `c1ccc(-n2nnnc2Oc2cccc3cccnc23)cc1`, the “hERG current change (%, negative = inhibition) at 10uM” value was -0.173%.
Take `O=C(c1ccco1)N1CCN(c2nc(-c3ccc(F)cc3)cs2)CC1`: the “hERG current change (%, negative = inhibition) at 10uM” value is listed as -34.9%.
Turning to `CC(c1n[nH]c(=S)n1Cc1ccccc1)N(C)C` (stereo not drawn), the “hERG current change (%, negative = inhibition) at 10uM” value stood at 15.6%.
Take `O=C1CCc2cc(NS(=O)(=O)c3ccc(Br)cc3)cc3c2N1CC3`: the “hERG current change (%, negative = inhibition) at 10uM” value was -13.5%.
On to `COc1ccc(CCNS(=O)(=O)c2ccc3c(c2)CC(C)N3C(C)=O)cc1OC` (stereo not drawn), for which the “hERG current change (%, negative = inhibition) at 10uM” value is -7.6%.
In the case of `Cc1nc(Cl)c(S(N)(=O)=O)c(C)c1Cl`, the “hERG current change (%, negative = inhibition) at 10uM” value stood at 2.19%.
In the case of `Cc1c(NC(=O)COC(=O)c2c3c(nc4ccccc24)CCCC3)c(=O)n(-c2ccccc2)n1C`, the “hERG current change (%, negative = inhibition) at 10uM” value is listed as -10.1%.
With `O=C(Cc1ccc2c(c1)OCCO2)c1c(O)cc(O)cc1O`, the “hERG current change (%, negative = inhibition) at 10uM” value was -0.205%.
As for `NC(=S)N/N=C1\CC(c2ccc3c(c2)OCCO3)Oc2ccc(F)cc21` (stereo not drawn), the “hERG current change (%, negative = inhibition) at 10uM” value is reported as 12.9%.
As to `COc1cc(/C=C/C(=O)OCC(=O)NC(=O)NC(C)C)cc(S(=O)(=O)N2CCc3ccccc32)c1OC`, the “hERG current change (%, negative = inhibition) at 10uM” value worked out at 9%.
Consider `COc1ccccc1NC(=O)c1ccc(NC(=O)COC(=O)CC(NC(=O)c2ccccc2Cl)c2ccccc2)cc1` (stereo not drawn), for which the “hERG current change (%, negative = inhibition) at 10uM” value is recorded as 6.73%.
Regarding `O=S(=O)(Nc1ccc(Br)cc1)N1CCOCC1`, the “hERG current change (%, negative = inhibition) at 10uM” value amounted to 4.08%.
On to `CC(=O)N1CCN(CC(C)(C)NS(=O)(=O)c2ccc(C)cc2)CC1`, for which the “hERG current change (%, negative = inhibition) at 10uM” value is given as 7.76%.
As for `N#Cc1c(N)nc2c(c1N)CC(C(F)(F)F)O2` (stereo not drawn), the “hERG current change (%, negative = inhibition) at 10uM” value stood at 45.7%.
As for `Cc1cccc(NC(=S)N(Cc2ccc(Br)cc2)Cc2ccc(C(=O)O)cc2)c1`, the figure is 13.7%.
As for `Cc1cc(C)nc(-n2ncc(C#N)c2N)n1`, the figure is 10.7%; as for `CC(=O)c1cccc(N2C(=O)CC(N3CCN(S(=O)(=O)c4ccc(Cl)cc4)CC3)C2=O)c1` (stereo not drawn), 3.74%.
Take `COc1ccc2[nH]c(=O)c(CN(Cc3cccnc3)Cc3nnnn3CC3CCCO3)cc2c1` (stereo not drawn): the “hERG current change (%, negative = inhibition) at 10uM” value is listed as -1.97%.
Take `COc1ccc(OCCNC(=O)CCCO)cc1`: the “hERG current change (%, negative = inhibition) at 10uM” value stood at 21%.
As to `COc1ccc(C2CCCN2C(=O)Nc2ccccc2)cc1OC` (stereo not drawn), the “hERG current change (%, negative = inhibition) at 10uM” value was -16.1%.
